Reference: ChEMBL document CHEMBL4888484, “Replenishing the malaria drug discovery pipeline: Screening and hit evaluation of the MMV Hit Generation Library 1 (HGL1) against asexual blood stage Plasmodium falciparum ,using a nano luciferase reporter read-out” (2022)
Among all 4,800 compounds or so, about 420 (8.8%) showed an effect of 50% or more. The list shows a part of the results.

What follows are compounds tested on Plasmodium falciparum (assay: Confirmatory screen in NF54 nanoGlo assay, in single point, at 2uM, 72h). Settings: timepoint 72 hour.
Format: functional, Erythrocyte

Compared with `CCN(CC(=O)Nc1ccccc1OC)C(=O)c1ccc(S(=O)(=O)N2CCOCC2)cc1`, `COc1ccccc1NC(=O)CC1CS(=O)(=O)CC1CC(=O)Nc1ccccc1OC` (stereo unspecified) is lower in “% Inhibition” value: 10% for the first, 1% for the second.

First: CCCS(=O)(=O)NC1CCC2(CC1)OCCO2
Second: CCc1c[nH]c(CNC(=O)C2(C(=O)NC3CC3)CCC2)n1
The “% Inhibition” value of the first is lower: -11% for the first, 5% for the second.

Going from `Cc1ccnc(N(C(=O)c2cc(Cl)ccc2Cl)C(=O)c2cc(Cl)ccc2Cl)c1` to `Cc1cccc(Cn2ccc(-c3cccc(OCc4ccc(Cl)cc4Cl)c3)n2)c1`, the “% Inhibition” value rises from -9% to -4%.

First: CCCC1(c2ccncc2)CC(C)OC1=O (stereo unspecified)
Second: CCn1ncc2ccc(N[C@@H](C)C3(O)CCOCC3)cc21
The “% Inhibition” value of the first is lower: -1% for the first, 2% for the second.

Compared with `Cc1cnc(CC[C@H]2CCCN2C(=O)CCCc2ccccc2)n1C`, `Cc1cnc(C2CCC2)n1CCNS(=O)(=O)c1ccccc1` is higher in “% Inhibition” value: -6% for the first, -4% for the second.

First: CCOC(=O)Nc1nc(-c2ccccc2)c(C(=O)c2ccc(S(C)(=O)=O)cc2)s1
Second: C[C@@H](CC(=O)O)N(C(N)=O)c1ccc(Nc2ccccc2)cc1
The “% Inhibition” value of the first is higher: 6% for the first, 4% for the second.

Compared with `CNC(=O)[C@@H]1C[C@H](NCc2cc(OC)c(OC)c(OC)c2)CN1CC(c1ccccc1)c1ccccc1`, `O=C(N[C@H](c1ccccc1)C1CC1)C(c1ccccc1)c1ccccc1` is lower in “% Inhibition” value: 63% for the first, 10% for the second.

Compared with `O=C(NCCCN1CCOCC1)C1C2CCCC21` (stereo unspecified), `COc1cc(CNCCCN2CCOCC2)ccc1OCc1ccc(Cl)cc1` is higher in “% Inhibition” value: 2% for the first, 34% for the second.

Compared with `CCc1ccc(C(NC(=O)C2CCNC2)C(C)(C)C)o1` (stereo unspecified), `CCC(CC)(NCC(=O)NC1CC1)c1ccc(Cl)cc1` is lower in “% Inhibition” value: -8% for the first, -12% for the second.

First: NS(=O)(=O)N[C@H]1CCCc2sc(Cl)cc21
Second: CC(=O)N1CCc2cc(NS(=O)(=O)c3cc(C)ccc3O)ccc21
The “% Inhibition” value of the first is higher: 8% for the first, -12% for the second.

Going from `COc1ccc(CC(=O)NCCn2c(C(F)(F)F)nc3ccccc32)cc1` to `CCCNC(=O)Cn1nc2cc(-c3ccc(OC)cc3)nc(C)n2c1=O`, the “% Inhibition” value falls from 42% to -11%.

First: Cc1nnc(-c2ccco2)c2cn(-c3ccc(Cl)cc3)nc12
Second: Cc1nn(C)cc1-c1cc(-c2nnc(Nc3ccn(Cc4ccccc4Cl)n3)s2)no1
The “% Inhibition” value of the first is lower: -8% for the first, 16% for the second.

`O=C(Nc1ccc(F)cc1)c1c(-c2ccc(Cl)cc2)nc2n1CCS2(=O)=O` and `O=C(Nc1ccncc1)c1ccc2ccccc2n1` are the same in “% Inhibition” value: 0% for the first, 0% for the second.

First: COc1cc(CNCc2ccco2)ccc1OCc1cccc(C)c1
Second: COc1ccnc(NCc2ccc(N3CCOCC3)cc2)n1
The “% Inhibition” value of the first is higher: 3% for the first, -3% for the second.

First: CC1CN(C(=O)C(C(C)C)N2CC(C)OC(C)C2)CCO1 (stereo unspecified)
Second: CC1CCC(N2CC(C(=O)N(C3CC3)C(C)C(C)C)CC2=O)CC1 (stereo unspecified)
The “% Inhibition” value of the first is lower: -7% for the first, 0% for the second.

First: NC(=O)C1CCN(C(=O)NC2CCCCCC2)CC1
Second: O=C(NOCc1ccc(F)cc1)NC1CCCCC1
The “% Inhibition” value of the first is lower: -6% for the first, -5% for the second.

First: CC[C@@H](C(=O)Nc1cccc(C(F)(F)F)c1)n1c(C)nc2onc(C)c2c1=O
Second: O=C(NCc1ccccn1)c1cc(C(F)(F)F)cc(C(=O)Nc2ccccc2)n1
The “% Inhibition” value of the first is higher: 12% for the first, 8% for the second.

First: COCc1nsc(N2CC(C)OC3(CCCOC3)C2)n1 (stereo unspecified)
Second: Brc1cnn(Cc2cnc(NC3C4CCOC4C34CCC4)s2)c1 (stereo unspecified)
The “% Inhibition” value of the first is lower: -2% for the first, 1% for the second.

Going from `Oc1ccc(Br)cc1-c1nc2cnccn2c1NC1CCCCC1` to `CC(=O)c1cc(-c2cc(O)cc(CC[C@H]3CCCCN3)c2)ccc1O`, the “% Inhibition” value rises from 25% to 78%.

Going from `Cc1cc(C)n(-c2ccc(-c3nnc(-c4cc5cc(Oc6ccccc6)ccc5[nH]4)s3)cc2)n1` to `c1ccc2cc(-c3ccc4ccccc4n3)ccc2c1`, the “% Inhibition” value falls from 5% to -1%.

First: CC(C)(C)n1ncnc1NC(=O)c1cc(Cl)cc(Cl)c1
Second: Cc1ccc(NC(=O)c2cc[nH]n2)c(C)c1
The “% Inhibition” value of the first is higher: 29% for the first, -18% for the second.

First: Cn1c(CN2CCN(c3ccccc3)CC2)c(C#N)c2ccccc21
Second: CCc1nn(-c2ccccc2)c(Oc2ccccc2)c1CN(C[C@H]1CCCO1)C(=O)C(C)C
The “% Inhibition” value of the first is lower: -9% for the first, -2% for the second.

Compared with `Cc1c(-c2nn(-c3nc(C4CC4)cc(C(F)(F)F)n3)c(-c3cnn(C)c3C)c2Cl)cnn1C`, `CCCc1cc(-c2nc(-c3ccc(-n4nc(C)cc4N)cc3)no2)n(C)n1` is lower in “% Inhibition” value: 69% for the first, 48% for the second.

`Nc1nonc1C(=O)N1CCN(C(=O)Nc2ccc3c(c2)OCO3)CC1` and `Cc1cc(=O)n2ncc(C(=O)N3CCN(c4ccc(Cl)cc4)CC3)c2[nH]1` are the same in “% Inhibition” value: -9% for the first, -9% for the second.

First: Cc1nc(C(=O)Nc2[nH]c(=O)ncc2F)c(-c2ccccc2)o1
Second: Cn1cc(NC(=O)C(=O)NCC2(c3ccc(F)cc3F)CC2)cn1
The “% Inhibition” value of the first is higher: 85% for the first, 1% for the second.

Compared with `CCn1nc(-n2cnnc2)c(NS(=O)(=O)c2ccc(Br)cc2C)c1C`, `Cc1cc(C)n(S(=O)(=O)c2cccc3cccnc23)n1` is lower in “% Inhibition” value: 2% for the first, -8% for the second.

First: Cn1ccnc1CN1CCC[C@@](O)(CNS(=O)(=O)c2cccs2)CC1
Second: Cc1ccc(S(=O)(=O)C[C@H](CN2CCN(C)CC2)N2CCN(C)CC2)cc1
The “% Inhibition” value of the first is lower: -10% for the first, -6% for the second.

Compared with `O=C(N[C@@H](CCO)c1ccco1)c1cc(Cn2cccn2)on1`, `O=C(N[C@@H]1CN(Cc2ccccn2)CCC[C@H]1O)c1ccc(OCc2ccccc2)cc1` is higher in “% Inhibition” value: -16% for the first, 30% for the second.

Compared with `COc1ccc(CNC(=O)[C@H]2CN(C(=O)c3ccncc3)CC23CCCCC3)c(OC)c1`, `O=S(=O)(c1ccc(Br)cc1)N1CCOC12CCCCC2` is higher in “% Inhibition” value: -11% for the first, -7% for the second.

Compared with `CN(C)Cc1cn(C[C@H]2C[C@@H](NC(=O)Nc3ccc4c(c3)OCCO4)[C@H](O)[C@@H]2O)nn1`, `Clc1ccc(NC2(c3noc([C@@H]4CCCCO4)n3)CCC2)cc1` is higher in “% Inhibition” value: 0% for the first, 5% for the second.

`CC(=O)N[C@H](C(=O)N1CCCC1)C(C)C` and `C=CCOc1cc(C(=O)N2CCCCC2)cc2occc12` are the same in “% Inhibition” value: -4% for the first, -4% for the second.

First: N#CC1(NC(=O)c2ccncc2Cl)CCCC1
Second: Cc1ccc(C2C(C(=O)N3CCC(C)CC3)CCC(=O)N2C)cc1 (stereo unspecified)
The “% Inhibition” value of the first is higher: 9% for the first, -3% for the second.

Going from `Cc1ncsc1COC(=O)c1ccnc(N(C)C)c1` to `COC[C@H]1[C@H](NC(=O)c2ncc(F)cc2F)[C@H]2CCO[C@H]21`, the “% Inhibition” value falls from -1% to -5%.
